About 2,200 (0.71%) of roughly 310,000 compounds showed an effect of 50% or more. Effects have a minus sign here. The list shows a part of the results.
Each compound was assayed against human ether-à-go-go-related gene (hERG) potassium channel (human, UniProt Q12809) (assay: primary screen, population patch clamp on CHO cells stably expressing hERG).
Chain of human ether-à-go-go-related gene (hERG) potassium channel (Q12809 whole entry, looked up): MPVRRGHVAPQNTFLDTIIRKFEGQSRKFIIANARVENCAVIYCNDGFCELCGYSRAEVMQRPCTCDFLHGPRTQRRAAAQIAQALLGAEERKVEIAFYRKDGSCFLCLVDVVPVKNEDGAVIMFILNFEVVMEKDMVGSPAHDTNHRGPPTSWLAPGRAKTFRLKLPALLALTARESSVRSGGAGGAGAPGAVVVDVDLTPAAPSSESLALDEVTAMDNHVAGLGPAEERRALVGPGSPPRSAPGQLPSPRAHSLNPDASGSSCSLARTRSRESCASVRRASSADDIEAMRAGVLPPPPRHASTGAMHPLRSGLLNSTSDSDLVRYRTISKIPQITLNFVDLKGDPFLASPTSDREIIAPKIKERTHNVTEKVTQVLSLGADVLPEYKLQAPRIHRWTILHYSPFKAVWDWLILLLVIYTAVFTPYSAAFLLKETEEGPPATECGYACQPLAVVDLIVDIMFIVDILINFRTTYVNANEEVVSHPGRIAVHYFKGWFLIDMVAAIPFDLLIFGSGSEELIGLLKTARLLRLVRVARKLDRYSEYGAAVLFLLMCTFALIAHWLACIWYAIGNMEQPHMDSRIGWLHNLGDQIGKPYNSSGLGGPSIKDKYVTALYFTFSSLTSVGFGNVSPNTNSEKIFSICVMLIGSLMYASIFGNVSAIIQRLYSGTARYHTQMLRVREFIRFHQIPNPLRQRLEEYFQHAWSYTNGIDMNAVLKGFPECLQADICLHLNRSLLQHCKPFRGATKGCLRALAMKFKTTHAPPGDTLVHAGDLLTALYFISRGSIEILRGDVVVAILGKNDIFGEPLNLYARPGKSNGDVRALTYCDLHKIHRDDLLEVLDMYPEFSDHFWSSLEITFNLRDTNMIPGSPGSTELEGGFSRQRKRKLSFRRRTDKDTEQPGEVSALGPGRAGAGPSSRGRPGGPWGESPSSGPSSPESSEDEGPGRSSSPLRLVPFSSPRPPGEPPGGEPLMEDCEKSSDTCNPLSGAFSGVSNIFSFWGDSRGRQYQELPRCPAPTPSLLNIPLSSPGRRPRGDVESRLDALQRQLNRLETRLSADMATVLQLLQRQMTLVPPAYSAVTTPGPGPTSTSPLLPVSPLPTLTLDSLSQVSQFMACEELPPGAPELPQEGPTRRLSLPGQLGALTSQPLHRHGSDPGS

SMILES	hERG current change (%, negative = inhibition) at 1uM
Cc1cccc(NC(=O)C2Cc3ccccc3CN2C(=O)OCc2ccccc2)c1C (centres unmarked)	-9.52%
O=C(NCc1ccco1)c1ccc(Cn2c(=O)c3sccc3n(Cc3cccc(F)c3)c2=O)cc1	14.9%
CCn1c(CNC(=O)Cc2ccc(OC)cc2)n[nH]c1=S	11.7%
COc1cc(NC(=O)CCCNC(=O)c2ccc(Cl)cc2)cc(OC)c1	12.3%
O=C(NCCCn1ccnc1)C(=O)NCC1OCCN1S(=O)(=O)c1ccc2c(c1)OCCO2 (centres unmarked)	15.3%
COc1cc(NC(=S)NCc2cccnc2)cc(OC)c1	15.1%
Cc1cc([N+](=O)[O-])ccc1NC(=O)CN1C2CCC1CC(NC(=O)NC13CC4CC(CC(C4)C1)C3)C2 (centres unmarked)	10.7%
Cc1[nH]c(=O)[nH]c(=O)c1/C=N/NC(=O)[C@H](C)N.Cl	14.2%
COc1cc2c(cc1OC)CN(Cc1cc(OC)c(O)c(OC)c1)CC2	5.66%
CC(CCc1ccc(O)cc1)NCCC(c1ccccc1)c1ccccc1 (centres unmarked)	-84.2%
c1ccc(COc2cccc(CN3CCN(c4ccccn4)CC3)c2)cc1	16%
O=C(CSc1nc2c(cnn2-c2cccc(Cl)c2)c(=O)[nH]1)NCCC1=CCCCC1	7.82%
Fc1ccc(OCCCCCN2CCCC2)cc1	0.577%
Cc1ccc(S(=O)(=O)Nc2ccc3c(c2)nc(CCN2CCCCC2)n3C)cc1	-29.7%
CCCn1c(C)cs/c1=N\C(=S)Nc1ccccc1	11.5%
COc1ccc(Cl)cc1C(=O)NNC(=O)COC(=O)CCN=C1NS(=O)(=O)c2ccccc21	-0.399%
O=C(NNC1CC(=O)N(c2ccc3c(c2)OCCO3)C1=O)c1ccc(Cl)cc1 (centres unmarked)	10.2%
COc1ccc(OC)c(NC(=O)COc2ccc(S(=O)(=O)NC(C)C)cc2)c1	1.74%
COc1cnn(-c2ccccc2)c(=O)c1SCc1ccc(Cl)c(Cl)c1	13.2%
Cc1cccc(C)c1N1CCN(c2cc(Cl)nc(N)n2)CC1	-0.904%
O=C(C1CCCN(Cc2nc(-c3ccc(Cl)cc3)no2)C1)N1CCOCC1 (centres unmarked)	5.15%
CC(=O)c1nc2ccccc2n1S(=O)(=O)c1ccc(C)cc1	15.8%
CCN(CCNC(=O)c1cc(C)nn1-c1ccccc1)c1ccccc1	9.65%

SMILES	hERG current change (%, negative = inhibition) at 1uM
CCN(CC)C(=O)CSc1nc2ccccc2c(=O)n1-c1ccccc1OC	-3.55%
CCN(/N=C/c1ccc(Cl)cc1)c1cc(=O)n(C)c(=O)[nH]1	5.53%
COc1ccccc1NS(=O)(=O)c1ccc(C)c(NC(=O)c2c(C)noc2C)c1	4.9%
CCc1ccccc1N1C(=O)CC(=O)NC1=O	12.9%
CC(C)(C)n1ncc2c(=O)n(Cc3c(F)cccc3Cl)cnc21	4.71%
Cc1ccc(NC(=O)Nn2cnnc2)cc1	7.94%
COC(=O)Nc1sc2c(c1C(=O)NC1CC1)CCCCCC2	-8.23%
CCOC(=O)c1cc(-c2ccc(C)cc2)n(CCC(=O)NC(C)CC)c1C (centres unmarked)	19.1%
C=C(C)CNC(=S)N/N=C(\C)c1ccc(OC)cc1	14.8%
CCCOc1ccc(C(=O)N2CCCC2)cc1OC	3.71%
COc1ccc(N/C=C(\C2OC(=O)c3ccccc32)[N+](=O)[O-])cc1 (centres unmarked)	10.7%
CCc1nnc(NC(=O)CCC(=O)N2CCN(CCOc3ccc(C)cc3)CC2)s1	2.03%
Cc1cc(Nc2cccc([N+](=O)[O-])c2)c2cccc(C)c2n1.Cl	-73.5%
COc1cccc(CNC(=O)CNC(=O)N2CC(=O)Nc3ccccc32)c1	22.5%
Cc1nc(-c2cccnc2)sc1C(=O)Nc1ccc(F)cc1F	2.61%
COc1ccc(NC(=O)c2ccc3nc[nH]c3c2)cc1	14.3%
Cc1ccc2cc3cc(C(=O)NC4CC4)oc3nc2c1	8.06%
O=C(O)c1cnc(N2CCOCC2)nc1	11.1%
CC(=O)c1c(C)[nH]c(C(=O)NC2=NCCS2)c1C	12.9%
CCN(c1ccccc1)S(=O)(=O)c1ccc(Cl)c(NC(=O)c2ccc(=O)[nH]n2)c1	1.67%
CC(C)N(Cc1nc(-c2ccc(Cl)cc2)no1)C(=O)c1cccs1	-0.369%
Cc1ccc(/C=N/NC(=O)c2cccs2)cc1[N+](=O)[O-]	2.23%
Cc1nn(CCCC(=O)NCCc2ccccc2)c(=O)c2nccn12	7.57%

SMILES	hERG current change (%, negative = inhibition) at 1uM
Cc1c(CN2CCCCC2)c(O)n(CCCO)c(=O)c1C#N	7.05%
O=C(/C=C/c1ccco1)NC(=S)Nc1ccc(N2CCCC2)cc1	1.36%
O=C(NCc1ccccc1F)c1ccc2ccccc2n1	12%
Cc1cccc2cc(C(c3nnnn3Cc3ccccc3)N3CCN(C)CC3)c(=O)[nH]c12 (centres unmarked)	-1.27%
O=C(O)C(Cc1cnc[nH]1)NS(=O)(=O)c1ccc(Cl)cc1 (centres unmarked)	2.62%
CCOC(=O)CNc1nnc(SCC(=O)OCC)[nH]c1=O	12.5%
O=C(COc1ccc(Cl)cc1)NCCc1cnc[nH]1	5.31%
COc1ccc(N(C(=O)c2cnccn2)C(C(=O)NC2CCCCC2)c2ccc(Cl)cc2)cc1 (centres unmarked)	5.85%
COc1ccc2[nH]c(=O)c(CN(Cc3cccs3)S(=O)(=O)c3c(C)ccc4nsnc34)cc2c1	-8.43%
O=c1c(Cc2ccccc2)c(O)ccn1Cc1ccc2c(c1)OCO2	8.02%
CN1/C(=C/C=C(C#N)C#N)C(C)(C)c2ccccc21	10.9%
O=C(CCCOc1ccccc1)Nc1cccc(S(=O)(=O)N2CCCCC2)c1	-0.501%
COc1ccc(C(=O)Nc2ccccc2C(=O)O)cc1Cl	8.44%
CCNC(=O)NC(=O)C(C)OC(=O)c1cccnc1SC (centres unmarked)	4.88%
CCc1nc2sc3c(c2c(=O)n1NC(=O)CCl)CCCC3	3.5%
CN(Cc1nc(-c2ccncc2)no1)S(=O)(=O)c1ccc(Br)cc1	-27.4%
CC[C@@]12C(=O)N(c3cccc(C)c3)C(=O)N1[C@H](c1ccc(Br)cc1)[C@@H]1C(=O)N(C(C)(C)C)C(=O)[C@@H]12	8.57%
O=C(N1CCCCC1)N1CCCN(C(=O)N2CCCCC2)CC1	11.3%
CCN(C(=O)c1ccccc1Cl)c1ccccc1	6.14%
Nc1nnc(SCC(=O)c2ccccc2)s1	3.52%
CCN(CCCNC(=O)C1CCN(S(=O)(=O)N2CCOCC2)CC1)c1cccc(C)c1	12%
CSc1ccc(S(=O)(=O)NC2CC2)cc1	16.1%
Cc1ccc(-n2nnnc2C(=Cc2ccc(N(C)C)cc2)c2nnnn2-c2ccc(C)cc2)cc1	11.8%

SMILES	hERG current change (%, negative = inhibition) at 1uM
Cc1cccc(-n2c(SC(C)C(=O)O)nc3sc4c(c3c2=O)CCCC4)c1 (centres unmarked)	16.2%
O=c1[nH]cnc2c1ncn2Cc1ccc([N+](=O)[O-])cc1	23.9%
O=C(O)C(=O)O.O=C(c1cccc(F)c1)N1CCN(CC2CC3C=CC2C3)CC1 (centres unmarked)	11.8%
COc1cc(OC)c(C(=O)Oc2ccc3c(c2)OCO3)cc1OC	9.14%
CCCOc1ccc(C(O)CCNC(CC(=O)O)c2ccccc2)cc1 (centres unmarked)	22.5%
CCOC(=O)C1(C(F)(F)F)N=C(C(F)(F)F)Nc2ccccc21 (centres unmarked)	8.95%
Cc1c(-n2c(SCC(=O)NC(C)C(C)C)nc3ccccc3c2=O)c(=O)n(-c2ccccc2)n1C (centres unmarked)	11.7%
COc1ccccc1N1CCN(C2CCCN(S(=O)(=O)c3ccccc3)C2)CC1 (centres unmarked)	-3.88%
Cc1ccc(/C=C/C(=O)NCCCN2CCN(CCCNC(=O)/C=C/c3ccc(C)o3)CC2)o1	-22.7%
CCOC(=O)c1sc2nc3c(SCCC#N)cc(C(=O)c4cc(F)ccc4O)cn3c(=O)c2c1C	0.49%
COn1c(SCc2ccc(Cl)cc2)nc2ccccc2c1=O	11.9%
O=c1cccc2n1CC1CC2CN(c2nc(N3CCCCC3)nc(N3CCCCC3)n2)C1 (centres unmarked)	-11.6%
CCOC(=O)N1CCN(C(=O)CN(C)S(=O)(=O)c2ccc(OCC)cc2)CC1	6.94%
CC(OC(=O)Cc1coc2ccc3ccccc3c12)C(=O)Nc1ncc(Cl)cc1Cl (centres unmarked)	-1.25%
Cc1ccc(C)c(NC(=O)C2CC3c4ccccc4C2c2ccccc23)c1 (centres unmarked)	9.03%
COC(=O)/C=C1/N/C(=N\c2nc(C)cc(C)n2)N(c2ccc(C)c(C)c2)C1=O	-2.26%
Cc1cccn2c(=O)c3cc(C(=O)NCCN4CCOCC4)c(=N)n(CCCN4CCOCC4)c3nc12	16.7%
COc1ccc(C)cc1NC(=O)CCN1CCCC1	10.6%
COc1ccc(N2CCC(CNC(=S)Nc3cc(C)ccc3C)C2)cc1 (centres unmarked)	8.12%
COC(=O)c1c(N2C(=O)Nc3ccccc3N2O)sc(C)c1C	10.6%

Source: publication PMC4336329 (PLoS ONE, 2015)
